# Measured values as given in the supplement of paper PMC8728848.
# This is one part of the list.
# B1: CCL1 (Coprinopsis cinerea) (protein)
# chain: MDTQAKPPAGRYVIYNRVLSPNGEKLALTYPGYQREALTLTPLHHSANQIWILNNWDATTSSLTPETARNTQVGWGSGNVPIVLPPGNYVWTLASSAGGYIIQDGGKTVYWNAGEAVANTKVSIGGDNGLQARWIFERV
# Columns and labels:
# Assay in all cases: glycan array binding signal (z-score within array); higher = stronger binding
# Details in all cases: glycan notation: IUPAC condensed, linker removed
# [1] = biological target: Neu5Ac(a2-6)Gal(b1-4)GlcNAc(b1-6)[Gal(b1-3)GlcNAc(b1-3)]Gal(b1-4)Glc
# Outline: (§1)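 The binding signal is a Z-score computed within each array. Data were drawn from 3228 arrays in the Consortium for Functional Glycomics database, restricted to those with a known protein sequence. Scores were averaged over arrays of the same protein sequence at different concentrations or buffers, and over linkers, and negative values can be taken as non-binding.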
# [2] = biological target: Neu5Ac(a2-6)Gal(b1-4)GlcNAc6S
# Outline: as §1
# Neu5Ac(a2-6)GalNAc = biological target: Neu5Ac(a2-6)GalNAc
# Outline: as §1
# [3] = biological target: Neu5Ac(a2-6)GalNAc(b1-4)GlcNAc
# Outline: as §1
# [4] = biological target: Neu5Ac(a2-6)GalNAc(b1-4)GlcNAc6S
# Outline: as §1
# [5] = biological target: Neu5Ac(a2-6)GlcNAc(b1-4)GlcNAc
# Outline: as §1
# [6] = biological target: Neu5Ac(a2-6)GlcNAc(b1-4)GlcNAc(b1-4)GlcNAc
# Outline: as §1
# Neu5Ac(a2-8)Neu5Ac = biological target: Neu5Ac(a2-8)Neu5Ac
# Outline: as §1
# [7] = biological target: Neu5Ac(a2-8)Neu5Ac(a2-3)Gal(b1-3)GalNAc(b1-4)[Neu5Ac(a2-8)Neu5Ac(a2-3)]Gal(b1-4)Glc
# Outline: as §1
# [8] = biological target: Neu5Ac(a2-8)Neu5Ac(a2-3)Gal(b1-4)Glc
# Outline: as §1
# [9] = biological target: Neu5Ac(a2-8)Neu5Ac(a2-3)[Gal(b1-3)GalNAc(b1-4)]Gal(b1-4)Glc
# Outline: as §1
# [10] = biological target: Neu5Ac(a2-8)Neu5Ac(a2-3)[GalNAc(b1-4)]Gal(b1-4)Glc
# Outline: as §1
# [11] = biological target: Neu5Ac(a2-8)Neu5Ac(a2-8)Neu5Ac
# Outline: as §1
# [12] = biological target: Neu5Ac(a2-8)Neu5Ac(a2-8)Neu5Ac(a2-3)Gal(b1-4)Glc
# Outline: as §1
# [13] = biological target: Neu5Ac(a2-8)Neu5Ac(a2-8)Neu5Ac(a2-3)[GalNAc(b1-4)]Gal(b1-4)Glc
# Outline: as §1
# [14] = biological target: Neu5Ac(a2-8)Neu5Ac(a2-8)Neu5Ac(a2-8)Neu5Ac(a2-3)[GalNAc(b1-4)]Gal(b1-4)Glc
# Outline: as §1
# [15] = biological target: Neu5Ac(b2-6)Gal(b1-4)GlcNAc
# Outline: as §1
# Neu5Ac(b2-6)GalNAc = biological target: Neu5Ac(b2-6)GalNAc
# Outline: as §1
# [16] = biological target: Neu5Ac9Ac(a2-3)Gal(b1-3)GlcNAc
# Outline: as §1
# [17] = biological target: Neu5Ac9Ac(a2-3)Gal(b1-4)GlcNAc
# Outline: as §1
# [18] = biological target: Neu5Ac9Ac(a2-6)Gal(b1-4)GlcNAc
# Outline: as §1
# [19] = biological target: Neu5Gc(a2-3)Gal(b1-3)GlcNAc
# Outline: as §1
# [20] = biological target: Neu5Gc(a2-3)Gal(b1-3)[Fuc(a1-4)]GlcNAc
# Outline: as §1
# Neu5Gc(a2-3)Gal(b1-4)Glc = biological target: Neu5Gc(a2-3)Gal(b1-4)Glc
# Outline: as §1
# [21] = biological target: Neu5Gc(a2-3)Gal(b1-4)GlcNAc
# Outline: as §1
# [22] = biological target: Neu5Gc(a2-3)Gal(b1-4)[Fuc(a1-3)]GlcNAc
# Outline: as §1
# [23] = biological target: Neu5Gc(a2-6)Gal(b1-4)GlcNAc
# Outline: as §1
# Neu5Gc(a2-6)GalNAc = biological target: Neu5Gc(a2-6)GalNAc
# Outline: as §1
# [24] = biological target: Neu5Gc(b2-6)Gal(b1-4)GlcNAc
# Outline: as §1
binder,measurement,setting,value
B1,glycan array binding signal (z-score),[1],-0.149
same,glycan array binding signal (z-score),[2],-0.146
same,glycan array binding signal (z-score),Neu5Ac(a2-6)GalNAc,-0.161
same,glycan array binding signal (z-score),[3],-0.157
same,glycan array binding signal (z-score),[4],-0.056
same,glycan array binding signal (z-score),[5],-0.147
same,glycan array binding signal (z-score),[6],-0.15
same,glycan array binding signal (z-score),Neu5Ac(a2-8)Neu5Ac,-0.131
same,glycan array binding signal (z-score),[7],-0.163
same,glycan array binding signal (z-score),[8],-0.166
same,glycan array binding signal (z-score),[9],-0.084
same,glycan array binding signal (z-score),[10],-0.127
same,glycan array binding signal (z-score),[11],-0.134
same,glycan array binding signal (z-score),[12],-0.123
same,glycan array binding signal (z-score),[13],-0.118
same,glycan array binding signal (z-score),[14],-0.108
same,glycan array binding signal (z-score),[15],-0.163
same,glycan array binding signal (z-score),Neu5Ac(b2-6)GalNAc,-0.145
same,glycan array binding signal (z-score),[16],-0.15
same,glycan array binding signal (z-score),[17],-0.145
same,glycan array binding signal (z-score),[18],-0.161
same,glycan array binding signal (z-score),[19],-0.15
same,glycan array binding signal (z-score),[20],-0.164
same,glycan array binding signal (z-score),Neu5Gc(a2-3)Gal(b1-4)Glc,-0.129
same,glycan array binding signal (z-score),[21],-0.158
same,glycan array binding signal (z-score),[22],0.81
same,glycan array binding signal (z-score),[23],-0.133
same,glycan array binding signal (z-score),Neu5Gc(a2-6)GalNAc,-0.136
same,glycan array binding signal (z-score),[24],-0.147
